Among all 410,000 compounds or so, about 6,400 (1.6%) were called active. The shares of active, inactive and inconclusive entries below differ from those in the screen. Calls follow the shape of the dose curve; as a rule, active = well fitted inhibition curve with a large enough effect; inconclusive = small, poorly fitted or top-dose-only effect; inactive = no such curve, though single readings can be large or run the other way. Potencies of inconclusive entries are doubtful fits and often do not repeat.
Target: Glucagon-like peptide 1 receptor (Homo sapiens) (UniProt P43220)
Assay: qHTS of GLP-1 Receptor Inverse Agonists (Inhibition Mode); also: nearly all actives have a fitted effect of over 55% in size
Conditions: HEK293 GLP-1R CRE-luciferase, luminescence, 24 h, GLP-1R form is constitutively active; series mostly up to 38.3 µM
In short: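 Using stably transfected HEK293 (constitutively active GLP-1R, cAMP-luciferase reporter), compounds were incubated 24 hr and luciferase measured by luminescence.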
Potency is read from the fitted curve at half-maximal effect; tags tell the direction and shape of the fitted curve.

UniProt P43220, sequence (P43220 whole entry, looked up): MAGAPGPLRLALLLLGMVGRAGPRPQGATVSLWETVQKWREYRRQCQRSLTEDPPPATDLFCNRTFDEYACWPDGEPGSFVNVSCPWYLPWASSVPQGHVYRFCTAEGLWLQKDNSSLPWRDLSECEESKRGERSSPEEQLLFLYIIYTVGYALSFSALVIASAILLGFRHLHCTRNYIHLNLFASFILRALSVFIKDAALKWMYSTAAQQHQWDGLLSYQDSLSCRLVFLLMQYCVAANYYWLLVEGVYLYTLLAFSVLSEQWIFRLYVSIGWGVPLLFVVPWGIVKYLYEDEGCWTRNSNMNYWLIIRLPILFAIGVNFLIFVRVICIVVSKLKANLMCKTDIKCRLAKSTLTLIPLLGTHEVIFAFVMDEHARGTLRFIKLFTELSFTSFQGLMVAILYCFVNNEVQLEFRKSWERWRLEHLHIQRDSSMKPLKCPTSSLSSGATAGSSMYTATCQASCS

Potency, inactive:
Cc1nnc(N2CCN(C(=O)NC(C)C)CC2)c2nn(-c3ccccc3)c(C)c12, Cn1cc(S(=O)(=O)c2cccc(Cl)c2)c(=O)c2cc(F)c(N3CCN(c4ccc(F)cc4)CC3)cc21, Cc1ccc(S(=O)(=O)N[C@H](CO)C(C)C)cc1, O=C1CC(C(=O)Nc2ccccc2)C2(CCCCC2)O1 (centres undefined), O=[N+]([O-])C(=C1Nc2ccccc2N1)C(Cl)=C(Cl)Cl, Cc1ccc(-c2csc(C3C(N)=NC(S)=C(C#N)C34CCCCC4)n2)cc1 (centres undefined), COc1cc(CCN=Cc2cc(Cl)cc(Cl)c2O)c([N+](=O)[O-])cc1OC, O=c1c2oc3ccccc3c2n(Cc2cccc(Cl)c2)c(=O)n1Cc1ccco1, COc1ccc(-c2c(N)cnc(C(=O)O)c2C)c(OCc2ccccc2)c1OC, CCN(CC)CCNC(=O)c1cn(CC)c2cc(N3CCN(C)CC3)c(F)cc2c1=O, COc1ccc(NS(=O)(=O)c2cc(Br)cc3c2N(C(=O)C2CC2)CC3)cc1OC, O=C(CCC(=O)c1cccs1)NNC(=O)c1ccccc1Cl, Cc1ccccc1C(=O)Nc1scc(-c2ccc(Br)cc2)c1C(=O)O

Potency, inconclusive:
Nc1ccc(-c2nc3ccc(N)cc3o2)cc1 20 µM [inhibitor, single point], CC(C)CC1Nc2ncnc(N3CCN(c4ccccc4)CC3)c2N(Cc2ccc(Br)cc2)C1=O (centres undefined) 14.1 µM [inhibitor, partial curve, poor fit], Fc1cccc(Nc2nc(-c3ccncc3)nc3ccccc23)c1 2.51 µM [inhibitor, full curve, poor fit], Cc1ccc2c(C)c(C(=O)N(Cc3cccs3)C3CCS(=O)(=O)C3)oc2c1 (centres undefined) 11.2 µM [inhibitor, partial curve, poor fit], CC(C)(C)OC(=O)N1CCC(C(=O)Nc2ccc3c(c2)CCC3)CC1 11.2 µM [inhibitor, partial curve, poor fit], CCOC(=O)C1=NN(c2ccccc2)C(c2ccccc2)CC1=O (centres undefined) 28.2 µM [inhibitor, single point], Cc1ccc(C)c(N(CC(=O)NC2CCCC2)C(=O)c2cc3cc4cccc(C)c4nc3s2)c1 2.51 µM [inhibitor, partial curve, poor fit], O=C(CCC1CCCCC1)NCCN1C2=NC[C@@H](Cc3ccccc3)N2C[C@H]1Cc1ccc(O)cc1 12.6 µM [inhibitor, single point], CCCCNC(=S)NCc1ccc2c(c1)cc(C)n2C 28.2 µM [inhibitor, single point], Cc1ccc(/C=N/Nc2nncn2N)cc1 28.2 µM [inhibitor, single point], COc1cccc(-c2cccc3c2NC(=O)C3(C)Cc2ccccc2F)c1 (centres undefined) 7.08 µM [inhibitor, partial curve, poor fit], COc1cccc(NC(=O)n2ncc3c(C)cccc32)c1 11.2 µM [inhibitor, single point], Cc1ccc(CSCCNC(=O)/C=C/c2ccccc2Cl)cc1 8.91 µM [inhibitor, single point], CC1CCN(C(=O)c2ccc(NC(=O)c3ccccc3)cc2)CC1 28.2 µM [inhibitor, single point], COc1ccc(CCN2C(=O)CC(C(N)=O)SC2=Nc2ccccc2)cc1 (centres undefined) 28.2 µM [inhibitor, single point], Cc1c(CC(=O)N2CCN(C(=O)C3COc4ccccc4O3)CC2)c(=O)oc2cc(O)ccc12 (centres undefined) 0.794 µM [inhibitor, full curve, poor fit], Cc1ccccc1NC(=O)NCCCCc1ccccc1 7.94 µM [inhibitor, partial curve, poor fit], O=C(NCC1CCCO1)c1coc2nc3ccccc3nc12 (centres undefined) 10 µM [inhibitor, single point], COc1ccc(C)cc1NC(=O)C(=O)c1cn(CC(=O)N2CCCC2)c2ccccc12 14.1 µM [inhibitor, single point], Cn1cc(C2=C(c3ccc(Cl)cc3Cl)C(=O)NC2=O)c2ccccc21 3.16 µM [inhibitor, full curve, poor fit], CCC1C(=O)C(CC)C(c2ccccc2)NC1c1ccccc1 (centres undefined) 11.2 µM [inhibitor, partial curve, poor fit], O=S(=O)(c1ccccc1)N1CCN(C(=S)NC2CCCC2)CC1 17.8 µM [inhibitor, single point], COc1cccc(CNC(=O)c2ccc3c(c2)c(C)c(C)n3Cc2ccccc2)c1OC 11.2 µM [inhibitor, single point], CC(C)c1ccc(NC(=O)CS(=O)(=O)c2cccc3nsnc23)cc1 31.6 µM [inhibitor, partial curve, poor fit], COCCCNC(=O)/C(C#N)=C/c1c(N2CCN(c3ccccc3)CC2)nc2c(C)cccn2c1=O 28.2 µM [inhibitor, single point], CCn1ncc(Br)c1C(=O)N(C)C12CC3CC(CC(C3)C1)C2 10 µM [inhibitor, single point], O=S(=O)(Nc1cc(F)ccc1F)c1ccc2[nH]c3c(c2c1)CCCC3 14.1 µM [inhibitor, partial curve, poor fit], O=C(Cc1ccc(Br)cc1)Nc1cccc(S(=O)(=O)N2CCOCC2)c1 28.2 µM [inhibitor, single point]

Potency, active:
Cc1cc(N2CCN(C)CC2)nc2ccc(NC(=S)N3CCCCCC3)cc12 11.2 µM, Cc1ccc2occ(CC(=O)N(Cc3ccc(Cl)cc3)C3CCS(=O)(=O)C3)c2c1 (centres undefined) 11.2 µM, Cc1ccc(S(=O)(=O)NC(CC(C)C)C(=O)NCC(c2ccco2)N2CCCCC2)cc1 (centres undefined) 4.47 µM
